The values that follow come from the supplement of paper PMC3334620.

In all, about 33,000 sequences were measured (“E-score (-0.5 to 0.5)”: median about -0.043, highest 2% from about 0.37 on). Some of the results follow.

For the experiment, the target named is T1, Upc2 (UniProt Q12151).
T1 sequence: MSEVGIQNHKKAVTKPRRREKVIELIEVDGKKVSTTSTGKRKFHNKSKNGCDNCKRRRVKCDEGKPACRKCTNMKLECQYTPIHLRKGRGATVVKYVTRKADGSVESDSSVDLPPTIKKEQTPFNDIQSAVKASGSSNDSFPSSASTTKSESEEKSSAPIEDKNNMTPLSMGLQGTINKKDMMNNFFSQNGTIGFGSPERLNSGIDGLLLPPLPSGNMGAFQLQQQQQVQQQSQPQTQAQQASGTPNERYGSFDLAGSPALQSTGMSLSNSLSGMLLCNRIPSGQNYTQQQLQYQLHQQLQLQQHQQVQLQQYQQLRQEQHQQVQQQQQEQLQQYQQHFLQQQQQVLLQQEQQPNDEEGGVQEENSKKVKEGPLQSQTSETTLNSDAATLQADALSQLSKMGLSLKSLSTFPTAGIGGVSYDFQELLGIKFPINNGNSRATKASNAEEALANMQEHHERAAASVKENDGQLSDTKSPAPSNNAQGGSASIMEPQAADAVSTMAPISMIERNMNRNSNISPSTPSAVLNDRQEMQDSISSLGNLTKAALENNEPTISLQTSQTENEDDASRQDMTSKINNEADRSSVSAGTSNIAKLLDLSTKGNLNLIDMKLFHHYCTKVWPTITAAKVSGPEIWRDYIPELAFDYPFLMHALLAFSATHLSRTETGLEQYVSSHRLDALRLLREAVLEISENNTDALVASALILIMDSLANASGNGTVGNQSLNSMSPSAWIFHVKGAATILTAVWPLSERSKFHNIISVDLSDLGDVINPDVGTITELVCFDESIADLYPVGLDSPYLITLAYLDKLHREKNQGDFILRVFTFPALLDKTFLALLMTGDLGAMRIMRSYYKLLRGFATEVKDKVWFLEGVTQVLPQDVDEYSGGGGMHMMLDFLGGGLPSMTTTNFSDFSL
Put plainly: PBM E-score (8-mer binding enrichment) (E-score (-0.5 to 0.5)); higher = stronger / more preferred TF binding; most listed sequences are background and not binding sites. The conditions noted are these: protein concentration: 200 nM; construct: GST-full length. The method, then: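 Universal 'all 10-mer' protein binding microarrays (Agilent AMADID 015681) probed with GST-tagged S. cerevisiae TFs (full-length or DBD) made by in vitro transcription/translation (PURExpress), about 100-200 nM. Bound TF was detected with fluorescent anti-GST. Each ungapped 8-mer (which stands for itself and its reverse complement) is scored by the PBM enrichment score (E-score), a modified Wilcoxon-Mann-Whitney statistic from -0.5 to +0.5, computed with the Universal PBM Analysis Suite. Scale: above 0.35 generally sequence-specific binding.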
Take CGATAGAG: the “PBM E-score” value is 0.131.

On to ATTCCAAA, for which the “PBM E-score” value was found to be 0.00842.

Consider TGACCACA, for which the “PBM E-score” value was -0.285.

Turning to GGCCGGCA, the “PBM E-score” value is -0.229.

For the sequence AAACATAG, the “PBM E-score” value is -0.00681.

As to ACTTCTAG, the “PBM E-score” value was -0.23.

For the sequence ACATATGG, the “PBM E-score” value was -0.0626.

Take GGCGCAGA: the “PBM E-score” value is -0.0785.

With CTACAACC, the “PBM E-score” value turned out to be 0.0888.

ACGGTAGC: the “PBM E-score” value is 0.0604.

In the case of CTCGCTTC, the “PBM E-score” value turned out to be 0.134.

CACAATAG: the “PBM E-score” value was -0.0551.

TAGCATAA: the “PBM E-score” value is -0.0651.

As to GGCCGGAA, the “PBM E-score” value was -0.216.

Consider AACGTCGA, for which the “PBM E-score” value was 0.202.

As to CAAACGTG, the “PBM E-score” value worked out at 0.225.

For CAGCTCTC, the “PBM E-score” value was -0.0943.

For the sequence CAGCAGTA, the “PBM E-score” value was -0.117.

In the case of GCATTACC, the “PBM E-score” value was -0.15.

As to TAGGACTA, the “PBM E-score” value is -0.168.

AAATCTTG: the “PBM E-score” value was -0.204.

As for AAGACGGG, the “PBM E-score” value was -0.115.

Consider GACCGTAA, for which the “PBM E-score” value is 0.294.

Consider AGACGGAC, for which the “PBM E-score” value is -0.284.

As for ACTGGAAG, the “PBM E-score” value was -0.184.

As for GCCTAAGC, the “PBM E-score” value was -0.129.

Consider GAACGCCC, for which the “PBM E-score” value came to 0.0622.

Take ACGAGCGC: the “PBM E-score” value was found to be 0.347.

For the sequence AATTTGGC, the “PBM E-score” value was 0.0131.

As to AATTACGT, the “PBM E-score” value was 0.141.

As for ATGTGATA, the “PBM E-score” value is 0.0151.

With ATCCCCCA, the “PBM E-score” value is -0.145.

With CCCCACAA, the “PBM E-score” value is -0.215.

For ACATTACG, the “PBM E-score” value worked out at 0.177.

Consider ATGCTTGC, for which the “PBM E-score” value is -0.113.

With CGAAGCTA, the “PBM E-score” value is 0.221.

Regarding GCAACAAA, the “PBM E-score” value was determined as 0.0688.

Take CCGACAGA: the “PBM E-score” value turned out to be 0.102.

As to CGCCTCTA, the “PBM E-score” value was -0.102.

Consider CTTTGGGA, for which the “PBM E-score” value was -0.207.

For CTGTACAG, the “PBM E-score” value was determined as 0.158.

As for AGGATCCT, the “PBM E-score” value is 0.0508.

As to CTAACAAG, the “PBM E-score” value is -0.148.

In the case of ACGTTCCT, the “PBM E-score” value is 0.105.

Regarding GGAATACA, the “PBM E-score” value is -0.107.

On to ACCAAGAG, for which the “PBM E-score” value is -0.294.

Turning to CGGCGCCC, the “PBM E-score” value was -0.0673.

As for GAGCTCAA, the “PBM E-score” value came out at 0.0879.

ATCGGGGA: the “PBM E-score” value is -0.0416.

In the case of AGCGGATA, the “PBM E-score” value stood at 0.0584.

As to CGGCTCTC, the “PBM E-score” value is -0.12.

In the case of AGAGTGAA, the “PBM E-score” value was -0.11.

ACGACCAC: the “PBM E-score” value was found to be 0.302.

For AGAGGCGC, the “PBM E-score” value was -0.0107.

For the sequence GGCTAGAA, the “PBM E-score” value amounted to 0.114.

For ACGCCCCT, the “PBM E-score” value is -0.0337.

As for AAACCGAT, the “PBM E-score” value stood at 0.149.

As to CAGCGGCC, the “PBM E-score” value was -0.191.

Turning to CGTTATAG, the “PBM E-score” value came out at 0.063.

Turning to ATGTGGTG, the “PBM E-score” value was -0.0304.

In the case of GCGGCTCA, the “PBM E-score” value was -0.0608.

CATTTCTC: the “PBM E-score” value is -0.0325.

With TGAGAAAA, the “PBM E-score” value is -0.132.

Turning to GCACTGCC, the “PBM E-score” value is -0.104.

Take AACCCCCA: the “PBM E-score” value was -0.34.

GAGGTTCA: the “PBM E-score” value was found to be 0.157.

On to ACAACAGA, for which the “PBM E-score” value is -0.171.

As for CGTACTTC, the “PBM E-score” value worked out at 0.252.

On to ATAGGCAG, for which the “PBM E-score” value was -0.034.

On to ACATATCG, for which the “PBM E-score” value came to 0.0324.

TACCCGAA: the “PBM E-score” value turned out to be 0.228.

On to CGCACCTA, for which the “PBM E-score” value came out at 0.00889.

Regarding ATCACCCC, the “PBM E-score” value was -0.0784.

As to AACTTATC, the “PBM E-score” value is -0.121.

In the case of GCGCGTCC, the “PBM E-score” value is -0.161.

AGCCCAGA: the “PBM E-score” value was -0.156.

CCTAGCCG: the “PBM E-score” value is -0.225.

Turning to CTAAAAAC, the “PBM E-score” value came to 0.148.

Regarding AAGGGGCG, the “PBM E-score” value was -0.145.

With AAGACCAA, the “PBM E-score” value was -0.121.

For the sequence GCGCTTCA, the “PBM E-score” value was -0.0391.

On to GAGACTGC, for which the “PBM E-score” value is -0.00306.

With AAACTATG, the “PBM E-score” value is -0.257.

Take ACGTTAAA: the “PBM E-score” value amounted to 0.269.

Regarding CCCTGCGC, the “PBM E-score” value is -0.276.

For TCGTGTCA, the “PBM E-score” value stood at 0.0512.

As for ACTGATTA, the “PBM E-score” value came to 0.00651.

As to CGTTAAAG, the “PBM E-score” value was 0.4.

In the case of CGTGCTTC, the “PBM E-score” value came to 0.014.

Consider CCACGTAG, for which the “PBM E-score” value is -0.0902.

For GACCATGA, the “PBM E-score” value was -0.0276.

With CTAGTCGA, the “PBM E-score” value was -0.127.

With ACCAGACA, the “PBM E-score” value turned out to be 0.0296.

Take AAAAAGTC: the “PBM E-score” value is -0.00907.

As for AACGACAT, the “PBM E-score” value was found to be 0.432.

With CAACGAGC, the “PBM E-score” value amounted to 0.286.

As for GTCCAAAA, the “PBM E-score” value is -0.107.

Turning to AATCGTGC, the “PBM E-score” value is 0.229.

AAGGCTGC: the “PBM E-score” value is -0.0519.

Consider CTTTCAGA, for which the “PBM E-score” value is -0.0284.

Regarding TGCAGACA, the “PBM E-score” value is -0.256.

Take TGAATCCA: the “PBM E-score” value is -0.147.

Turning to CTGAACCA, the “PBM E-score” value is -0.213.

Take GAAGTAAA: the “PBM E-score” value stood at 0.0236.

For CTAGGCGC, the “PBM E-score” value is -0.0491.

For AGTGAGAC, the “PBM E-score” value was -0.0557.

TCATGGGA: the “PBM E-score” value was -0.15.

Take CGCCAATA: the “PBM E-score” value amounted to 0.0567.

With ACTTACCT, the “PBM E-score” value is -0.13.
